Experimental data reported in PubChem BioAssay AID485294 (National Center for Advancing Translational Sciences (NCATS), 2010).
In all, about 370,000 compounds went through this assay and about 150 (0.041%) were called active. The inconclusive results got no clear call from the source; some entries with a clear call stand among them for comparison. The call rests on the fitted dose curve; in most records, active means well fitted inhibition curve with a large enough effect; inconclusive means small, poorly fitted or top-dose-only effect; inactive means flat fitted curve, though single readings scatter. No potency is given beside an inconclusive call; the fits are too rough.

These molecules were tested against Beta-lactamase (Escherichia coli (strain K12)) (UniProt P00811) (assay: qHTS Inhibitors of AmpC Beta-Lactamase (assay with detergent)). Details: AmpC hydrolysis of nitrocefin, absorbance 480 nm, 0.01% Triton; activity change, negative = inhibition: at 114 µM (top of the series).
Chain of UniProt P00811 (P00811 whole entry, looked up): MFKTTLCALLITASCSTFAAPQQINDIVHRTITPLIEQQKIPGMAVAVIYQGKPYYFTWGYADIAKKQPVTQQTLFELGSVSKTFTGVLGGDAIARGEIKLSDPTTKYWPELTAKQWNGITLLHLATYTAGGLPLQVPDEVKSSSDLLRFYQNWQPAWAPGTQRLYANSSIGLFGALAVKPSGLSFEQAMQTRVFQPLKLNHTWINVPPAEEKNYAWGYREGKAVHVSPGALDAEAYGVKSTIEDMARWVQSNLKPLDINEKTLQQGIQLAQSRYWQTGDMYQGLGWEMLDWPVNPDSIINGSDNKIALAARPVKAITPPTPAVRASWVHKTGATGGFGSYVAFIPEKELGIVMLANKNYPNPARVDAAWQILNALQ
Summary of the method: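 20 mM phosphate pH 7.0 + 0.01% (detergent screen) or 0.0001% Triton X-100; 5.3 nM AmpC reagent; cpd preinc 15 min RT; nitrocefin (800 uM stock) to start; A480 q20 s × 4 min; Activity was normalised to no-enzyme and no-compound control wells.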
Further: nearly all actives have a fitted effect of over 25% in size.
Potency means the concentration at half of the fitted maximal effect; tags describe the fitted curve by direction and shape.
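Wherever activity change, negative = inhibition is given: 0% = no-compound wells and -100% = no-enzyme wells.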

Structure (SMILES)	Potency	activity change, negative = inhibition
CC(C)N1C(=S)SC(C)(C)C1n1oc(=O)n(-c2ccc(Cl)c(Cl)c2)c1=O (configuration not stated)	inconclusive [inhibitor, single point]	
COc1ccc(CN2C(=O)C(CC(C)C)Nc3ncnc(N4CCCCC4)c32)cc1 (configuration not stated)	inconclusive [inhibitor, single point]	
O=C(N1CCOCCOc2ccccc2OCCOCC1)C(F)(F)F	inconclusive [inhibitor, full curve]	
CCS(=O)(=O)NCCc1csc(-c2cccnc2)n1	inconclusive [inhibitor, partial curve]	
O=C(O)CCCn1ccc2cc(S(=O)(=O)N3CCCC3)ccc21		inactive: 3.27%
C=C1C[C@]23C[C@@]1(O)CC[C@H]2[C@@]12C=C[C@H](O)[C@@](C)(C(=O)O1)[C@H]2[C@@H]3C(=O)O	inconclusive [inhibitor, full curve, poor fit]	
Cc1cccc(NC(=S)Nc2cccc(C)n2)n1		inactive: 7.68%
CC(C)CN(C(=O)COC(=O)c1c2c(nc3ccccc13)CCC2)c1c(N)n(Cc2ccccc2)c(=O)[nH]c1=O		inactive: -1.27%
c1ccc(-c2ccccc2-c2nc(-c3cccnc3)no2)cc1	inconclusive [inhibitor, full curve, poor fit]	
CN1C(=O)C2(c3ccccc31)N(c1cccc(C(F)(F)F)c1)C(=O)CS2(=O)=O (configuration not stated)		inactive: 4.24%
Cc1cccc(N2C(=O)CC(N(C(=O)c3ccco3)c3cccc(C)c3)C2=O)c1 (configuration not stated)		inactive: -6.53%
COc1ccc(/C(O)=C2/C(=O)C(=O)N(CCCN3CCOCC3)C2c2ccc(C)cc2)cc1 (configuration not stated)	inconclusive [inhibitor, partial curve, poor fit]	
Fc1ccccc1NC(=S)Nc1cccc2cnccc12		inactive: -18.5%
C=CCSc1nnc(-c2ccccc2N=Cc2c(C)[nH]n(-c3ccccc3)c2=O)c(=O)[nH]1	inconclusive [inhibitor, full curve, poor fit]	
N#Cc1cc(C(=O)c2cc(Br)ccc2O)cn(C2CCCCC2)c1=O		inactive: -8.7%
Cn1cnc([N+](=O)[O-])c1S(=O)(=O)c1ccc(Cl)cc1	inconclusive [inhibitor, partial curve]	
Cc1cc(C(=O)Nc2cccc(NC(=O)c3ccco3)c2)ccc1[N+](=O)[O-]	inconclusive [inhibitor, partial curve, poor fit]	
Cc1ccc(CN(C#N)c2nc(C)cc(C)n2)cc1	inconclusive [inhibitor, full curve]	
COC(=O)C1=C(c2ccc(F)cc2OCc2ccccc2)C[C@@H]2CC[C@H]1N2C		inactive: -4.51%
COc1cc(CN(C(=O)c2ccccc2F)C2CCS(=O)(=O)C2)cc(OC)c1OC (configuration not stated)		inactive: -1.93%
CCOC(=O)c1ccc(-c2ccc3[nH]c4ccccc4c(=O)c3c2)cc1F		inactive: -19.2%
CC(C)(C)c1cc(NC(=O)c2ccc(OC3CCCC3)cc2)no1		inactive: -6.9%
Fc1cc2nccnc2cc1N1CCSCC1	inconclusive [inhibitor, partial curve]	

Structure (SMILES)	Potency	activity change, negative = inhibition
CCc1nc(SCC(=O)Nc2ccc([N+](=O)[O-])cc2)n[nH]1	inconclusive [inhibitor, full curve]	
COc1ccc(C(=O)NCC(=O)OCC(=O)NCCC2=CCCCC2)cc1		inactive: -1.39%
COc1ccc(C)c2sc(N(CCN(C)C)C(=O)c3cccc(N4C(=O)CCC4=O)c3)nc12	inconclusive [inhibitor, full curve, poor fit]	
CC(C)CN(C(=O)CN1CCN(S(=O)(=O)c2ccccc2)CC1)c1c(N)n(CC(C)C)c(=O)[nH]c1=O	inconclusive [inhibitor, single point]	
Cc1ccc(CS(=O)(=O)c2ncc(Cl)c(C(=O)Nc3nnc(C(C)C)s3)n2)cc1	inconclusive [inhibitor, partial curve, poor fit]	
CCc1ccc(-n2nc(CO)c(C(=O)NC)n2)cc1		inactive: 0.974%
CC(C)CCNC(=O)C1CCN(C(=O)c2cc3sccc3n2Cc2ccc(Cl)cc2)CC1		inactive: 17.9%
CCOC(=O)COc1ccc(Br)cc1/C=C/c1[nH]c(=O)[nH]c(=O)c1[N+](=O)[O-]		inactive: 7.5%
CCC(=O)N1CCc2cc(CNS(=O)(=O)c3ccc(CC(C)C)cc3)ccc21		inactive: -2.05%
CC(=O)N1CCCc2cc(S(=O)(=O)Nc3ccc(C)cc3C)ccc21	inconclusive [inhibitor, partial curve, poor fit]	
CC(C(=O)c1c[nH]c2ccccc12)N1CCSCC1 (configuration not stated)	inconclusive [inhibitor, full curve]	
O=C(COC(=O)c1ccc(S(=O)(=O)N2CCOCC2)cc1)NC1CCCCCCC1	inconclusive [inhibitor, full curve]	
Nc1ccc2nn(-c3cc([N+](=O)[O-])ccc3O)nc2c1		inactive: 3.24%
CC1(C)C(=O)C2(CCCCC2)C(=O)OC1c1ccc(O)cc1 (configuration not stated)	inconclusive [inhibitor, partial curve]	
Cc1ccc(S(=O)(=O)Nc2ccccc2CNc2cccc(C)n2)cc1	inconclusive [inhibitor, partial curve, poor fit]	
O=C(Nc1ccc2c(c1)OCO2)C1CC(c2ccc(F)cc2)=NO1 (configuration not stated)	inconclusive [inhibitor, single point]	
COC(=O)c1sc(NC(=O)CSc2nnnn2C)nc1C	inconclusive [inhibitor, full curve]	
COc1ccccc1CCC(=O)N(CCC1=CCCCC1)c1c(N)n(Cc2ccccc2)c(=O)[nH]c1=O	inconclusive [inhibitor, full curve, poor fit]	
Cc1cc([N+](=O)[O-])ccc1-c1ccc(/C=N/NC(=O)c2ccc(Br)o2)o1	inconclusive [inhibitor, full curve, poor fit]	
COc1ccc(N(C(=O)CNC(=O)c2ccco2)C(C(=O)NCC2CCCO2)c2ccccc2)c(OC)c1 (configuration not stated)	inconclusive [inhibitor, partial curve]	
c1ccc2c(c1)Cn1nnnc1-2	inconclusive [inhibitor, partial curve]	
CCOC(=O)COc1ccc(C(=O)CC)cc1OC	inconclusive [inhibitor, full curve, poor fit]	
CC(C)Cn1c(-c2ccc(Cl)cc2)cnc1SCC(=O)N1CCOCC1	inconclusive [inhibitor, full curve]	

Structure (SMILES)	Potency	activity change, negative = inhibition
CCOC(=O)c1nn(-c2ccc(F)cc2)c2nc(Nc3ccccc3)cc(=O)n12	inconclusive [inhibitor, partial curve, poor fit]	
CCCNC(=O)C1CC(=O)N(c2ccc(OCC(=O)Nc3cccc(C)c3C)cc2)C1 (configuration not stated)	inconclusive [inhibitor, full curve, poor fit]	
CC(C)c1ccc(NC(=O)C2C3C=CC4(CN(Cc5cccnc5)C(=O)C24)O3)cc1 (configuration not stated)	inconclusive [inhibitor, full curve, poor fit]	
CCCCNS(=O)(=O)c1ccc2nc(-c3cccnc3)cc(C(=O)NCCCOC)c2c1	inconclusive [inhibitor, partial curve, poor fit]	
c1cn2cc(-c3ccc4c(c3)OCO4)nc2s1	inconclusive [inhibitor, single point]	
Cc1cccc(N(C)S(=O)(=O)c2cc(-c3cnc(C4CC4)o3)ccc2C)c1	inconclusive [inhibitor, single point]	
Cc1ccc(N2CC(C(=O)Nc3nnc(SCC(N)=O)s3)CC2=O)cc1C (configuration not stated)	inconclusive [inhibitor, full curve]	
COc1ccccc1CNC(=O)CN(c1ccc(C)cc1)S(=O)(=O)c1c(C)nn(C)c1C		inactive: 0.333%
CC1CC1C(=O)OCc1cc(=O)n2cc(Br)ccc2n1 (configuration not stated)	inconclusive [inhibitor, partial curve, poor fit]	
CCOc1ccc2nc(NC(=O)c3cccc(-c4cc5ccccc5oc4=O)c3)sc2c1		inactive: -4.15%
CSc1ccccc1C(=O)NC1CCCC1	inconclusive [inhibitor, full curve, poor fit]	
Cc1ccc(C(=O)NCCc2nnc3ccc(NCCCN4CCOCC4)nn23)cc1	inconclusive [inhibitor, full curve, poor fit]	
CCC(C)(C)NC(=O)C(c1ccco1)N(C(=O)CNC(=O)c1cccs1)c1cccnc1 (configuration not stated)	inconclusive [inhibitor, partial curve, poor fit]	
O=C1C2C3C=CC(CC3)C2C(=O)N1c1ccc2c(c1)OCO2 (configuration not stated)	inconclusive [inhibitor, partial curve]	
Cc1ccc(Cl)cc1-n1nnc(-c2nc(-c3ccc4c(c3)OCO4)no2)c1C		inactive: 4.99%
CCOC(=O)C(C)NC(=O)c1c2c(nc3ccccc13)C(=O)N(C1CCCCC1)C2 (configuration not stated)		inactive: 19.5%
CC(Oc1ccccc1)C(=O)OCC(=O)NC(=O)NC1CCCCC1 (configuration not stated)	inconclusive [inhibitor, single point]	
O=C(Nc1ccc(F)cc1)C1CCCN(C2=NS(=O)(=O)c3ccccc32)C1 (configuration not stated)	inconclusive [inhibitor, full curve, poor fit]	
COC(=O)CC1Oc2ccccc2-n2cc(-c3ccc(F)cc3)nc21 (configuration not stated)		inactive: -3.59%
CCS(=O)(=O)N1CCC(C(=O)c2ccc(Cl)cc2)CC1		inactive: 1.36%
COc1ccc(/C=C2\Oc3cc(OCC(=O)N4CCC[C@H]4C(=O)O)ccc3C2=O)cc1OC	inconclusive [inhibitor, full curve, poor fit]	
